Source: PubChem BioAssay AID2060511 (Molecular Pharmacology Branch, DTP, NCI, 2025)
For part of its entries the source gives two or more results. This list holds those alone. An entry can have further records. The values listed for one entry are repeats in other runs, samples, wells, individuals or studies. Signs of the kind (2×) say how often a value occurs here.

System: 422866-222-R5-J1-PDC spheroids with HUVEC/MSC, viability
Assay: Anticancer human tumor 422866-222-R5-J1-PDC patient-derived pancreatic adenocarcinoma cell line growth inhibition [GQUAD]
Details: for viability, T/C: stronger effect = lower value; for IC50: compound alone
Excerpt: DNA G-quadruplex Stabilizer Agents in Combinations in Complex Spheroids
A high-throughput screen of multi-cell type tumor spheroids was designed to identify active combinations of DNA G-quadruplex stabilizer agents and targeted small molecules. Complex spheroids include a stromal component modeled by human endothelial cells (HUVEC) and fibroblasts modeled by human mesenchymal stem cells (MSCs). The concentration ranges selected for each drug and investigational agent were based upon clinically achievable concentrations if the clinical Cmax of the agent was known.
Compounds. The drugs and investigational agents: pidnarulex (CX-5461; NSC782164), APTO-253 (NSC789042), BRACO-19 (NSC847499), peposertib (NSC802822), ceralasertib (NSC780249), elimusertib (NSC800525), camonsertib (NSC841442), AZD-1390 (NSC803789), olaparib (NSC753686), talazoparib (NSC767125), ART-558 (NSC835418), sotorasib (NSC818433), MRTX-1133 (NSC836407), SN-38 (NSC673596), topotecan (NSC609699), etoposide (NSC141540), doxorubicin (NSC123127), gemcitabine (NSC613327), 5-fluorouracil (NSC19893), paclitaxel (NSC125973), vemurafenib (NSC761431), panobinostat (NSC761190), R-306465 (JNJ-16241199; NSC773264), adavosertib (NSC754352), TP-3654 (NSC805149), carboplatin (NSC241240), KSQ-4279 (NSC840948), and staurosporine (NSC755774) were obtained from the National Cancer Institute (NCI) Developmental Therapeutics Program Chemical Repository (34). The FDA-approved anticancer drug set is available from the NCI Developmental Therapeutics Program. […] The stock solutions were prepared in dimethyl sulfoxide (DMSO, Sigma-Aldrich, St. Louis, MO, cat. D2650) at 800-fold the tested concentration and stored at -70 degrees C prior to their use. All drugs and investigational agents were tested over a range starting from a high concentration at or near the clinical Cmax and decreasing in half-log increments. If the clinical Cmax for an agent had not been determined, the highest concentration tested was 10 microM.
2.3 Cell Culture. All cells were maintained in an incubator at 37 degrees C and 5% CO2 with 95% humidity. The PDC lines were cultured according to standard operating procedures established by the NCI PDMR. All PDCs were thawed and cultured in Matrigel-coated flasks prepared with a working solution of 1X Ham's F-12 nutrient mix, without supplementation (Invitrogen, cat. 11765054), 100 U/mL penicillin-streptomycin (Invitrogen, cat. 15140122), and 2.5% Matrigel (Corning Inc., cat. 354248) for the first three passages. The 857933-349-R-J2-PDC line was cultured in 6C/Colon 1B media, which includes advanced DMEM/F-12 (Thermo Fisher Scientific, cat. 12634028), 10 mM HEPES (Thermo Fisher Scientific, cat. 15630080), 1X GlutaMAX supplement (Thermo Fisher Scientific, cat. 35050061), 0.1 mg/mL primocin (InvivoGen, cat. ant-pm-2), 10% defined fetal bovine serum, heat inactivated (HyClone Laboratories Inc., cat. SH30070.03HI), 50% L-WRN conditioned media (ATCC, cat. CRL-3276), 1.25 mM N-Acetyl-L-cysteine (Sigma-Aldrich, cat. A9165), 10 mM nicotinamide (Sigma-Aldrich, cat. N0636), 1X B-27 supplement (Thermo Fisher Scientific, cat. 17504044), 1X N-2 supplement (Thermo Fisher Scientific, cat. 17502048), 10 microM Y-27632 dihydrochloride (Tocris Bioscience, cat. 1254), and 50 ng/mL human EGF recombinant protein (Thermo Fisher Scientific, cat. PHG0311). The 485176-168-R4-J1-PDC line was cultured in Panc media, which includes all 6C/Colon 1B media components plus 100 ng/mL human FGF-10 (Thermo Fisher Scientific, cat. 100-26), 500 nM SB-431542 (Selleckchem, cat. S1067), and gastrin (Tocris, cat. 3006).
[…]
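Also: spheroids exposed to compounds for seven days before reading.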
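For viability, T/C in this document: percent viability relative to DMSO vehicle control taken as 100%.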

| SMILES | viability, T/C (compound alone 10 µM) | IC50 | further results |
| --- | --- | --- | --- |
| CC(=O)O[C@H]1C(=O)[C@@]2(C)[C@H]([C@H](OC(=O)c3ccccc3)[C@]3(O)C[C@H](OC(=O)[C@H](O)[C@@H](NC(=O)c4ccccc4)c4ccccc4)C(C)=C1C3(C)C)[C@]1(OC(C)=O)CO[C@@H]1C[C@@H]2O | 94.9%, 1.48%, 79.4% | – | – |
| C=CCn1c(=O)c2cnc(Nc3ccc(N4CCN(C)CC4)cc3)nc2n1-c1cccc(C(C)(C)O)n1 | – | 432 nM, > 10 µM, 658 nM | – |
| CN(C)c1ccc(Nc2c3ccc(NC(=O)CCN4CCCC4)cc3nc3cc(NC(=O)CCN4CCCC4)ccc23)cc1 | 92.2, 106, 94.1, 94.8, 86.6 (2×), 83.7, 74.5, 83.9, 78.7, 83.2% | – | viability, T/C (compound alone 0.316 µM): 96.2, 93.8, 94.5, 86.4, 89.9, 96.6, 109, 82.8, 91.3, 80.9, 96.7, 84.5% |
| O=C(NO)c1cnc(N2CCN(S(=O)(=O)c3ccc4ccccc4c3)CC2)nc1 | 1.95%, 72.8%, 1.71% | – | – |
| CC1COCCN1c1cc(-c2ccnn2C)c2ccnc(-c3ccn[nH]3)c2n1 (stereo not drawn) | – | > 10 µM and 31.6 nM | – |
| CCCS(=O)(=O)Nc1ccc(F)c(C(=O)c2c[nH]c3ncc(-c4ccc(Cl)cc4)cc23)c1F | – | > 10 µM (2×) and 567 nM | – |
| Cc1cnc(CNC(=O)c2c(=O)c3ccc(N4CCCN(C)CC4)nc3n3c2sc2ccccc23)cn1 | – | – | viability, T/C (compound alone 0.0316 µM): 95.4, 97.9, 96.5, 95.5, 89.4, 88.6, 85.6, 100, 92.5, 111, 90.1, 91.6% |
| Cc1[nH]c2ccc(F)cc2c1-c1nc2c3cccnc3c3ncccc3c2[nH]1 | 79.9, 87.7, 85.7, 79, 90, 89.6, 86.5, 92.1, 67.5, 57.6, 61.4, 70.7% | – | viability, T/C (compound alone 0.0316 µM): 95.6, 95.2, 98.4, 95.9, 101, 105 (2×), 73.6, 106, 97.2, 93.5, 95.8%; viability, T/C (compound alone 0.1 µM): 115, 107, 99.8, 94.6, 99.3, 105, 103, 111, 114, 92.3, 88.6, 99.7%; viability, T/C (compound alone 0.316 µM): 116, 91.7, 106, 94.4, 99.3, 93.6, 83.9, 91.4, 104, 95.4, 89.9, 114%; viability, T/C (compound alone 1 µM): 115, 97.4, 95, 93.4, 101 (2×), 87.1, 103, 107 (2×), 92.3, 112% |
